Results taken from the supplement of paper PMC12230231.
± gives the standard deviation of the averaged measurements. Restriction of a single-cycle SIVsab GFP reporter by TRIM5α v1-loop variants in CRFK cells. Human variants: read share among cells still uninfected after two challenges over input, higher = gained restriction. Rhesus variants: share among infected cells over input, higher = lost restriction. Reporter dose not given per row. No active / inactive call per row; the paper calls a change when both replicates lie above its controls (mean + 2 SD of stop or wild-type variants, or the top frameshift score). Residues outside the varied loop are taken from Swiss-Prot. The paper reads the human single-substitution scores as noise; they and the rhesus combinations repeat poorly (rank correlation 0.3 to 0.4), indel scores repeat only for the top variants, rhesus substitutions well (0.9).

The sequences below were run on SIVsab (simian immunodeficiency virus of sabaeus monkeys), single-cycle GFP reporter, in CRFK cells (assay: enrichment among infected cells over input (fold); higher = weaker restriction). Details: library: human / rhesus combinations.
Procedure: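 Pools of CRFK cells expressing variants of the TRIM5α v1 loop were challenged with the single-cycle reporter, sorted by GFP and sequenced; mean of two replicates.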

Sequence	enrichment
MASGILLNVKEEVTCPICLELLTEPLSLHCGHSFCQACITANHKKSMLYKEGERSCPVCRISYQPENIQPNRHVANIVEKLREVKLSPEEGQKVDHCARHGEKLLLFCQEDSKVICWLCERSQEHRGHHTFLMEEVAQEYHVKLQTALEMLRQKQQEAEKLEADIREEKASWKIQIDYDKTNVSADFEQLREILDWEESNELQNLEKEEEDILKSLTKSETEMVQQTQYMRELISELEHRLQGSMMDLLQGVDGIIKRIENMTLKKPKTFHKNQRRVFRAPDLKGMLDMFRELTDARRYWVDVTLAPNNISHAVIAEDKRQVSSRNPQIMYGAPGTLYTFQSFTNFNYCTGVLGSQSITSGKHYWEVDVSKKSAWILGVCAGFQSDAMYNIEQNENYQPKYGYWVIGLQEGVKYSVFQDGSSHTPFAPFIVPLSVIICPDRVGVFVDYEACTVSFFNITNHGFLIYKFSQCSFSKPVFPYLNPRKCTVPMTLCSPSS [rhesus TRIM5α, 332-344 = GAPGTLYTFQSFT]	1.24 ± 0.1
MASGILLNVKEEVTCPICLELLTEPLSLHCGHSFCQACITANHKKSMLYKEGERSCPVCRISYQPENIQPNRHVANIVEKLREVKLSPEEGQKVDHCARHGEKLLLFCQEDSKVICWLCERSQEHRGHHTFLMEEVAQEYHVKLQTALEMLRQKQQEAEKLEADIREEKASWKIQIDYDKTNVSADFEQLREILDWEESNELQNLEKEEEDILKSLTKSETEMVQQTQYMRELISELEHRLQGSMMDLLQGVDGIIKRIENMTLKKPKTFHKNQRRVFRAPDLKGMLDMFRELTDARRYWVDVTLAPNNISHAVIAEDKRQVSSRNPQIMYGARGTLYPTFTNFNYCTGVLGSQSITSGKHYWEVDVSKKSAWILGVCAGFQSDAMYNIEQNENYQPKYGYWVIGLQEGVKYSVFQDGSSHTPFAPFIVPLSVIICPDRVGVFVDYEACTVSFFNITNHGFLIYKFSQCSFSKPVFPYLNPRKCTVPMTLCSPSS [rhesus TRIM5α, 332-344 = GARGTLYPTFT]	0.835 ± 1.2
MASGILLNVKEEVTCPICLELLTEPLSLHCGHSFCQACITANHKKSMLYKEGERSCPVCRISYQPENIQPNRHVANIVEKLREVKLSPEEGQKVDHCARHGEKLLLFCQEDSKVICWLCERSQEHRGHHTFLMEEVAQEYHVKLQTALEMLRQKQQEAEKLEADIREEKASWKIQIDYDKTNVSADFEQLREILDWEESNELQNLEKEEEDILKSLTKSETEMVQQTQYMRELISELEHRLQGSMMDLLQGVDGIIKRIENMTLKKPKTFHKNQRRVFRAPDLKGMLDMFRELTDARRYWVDVTLAPNNISHAVIAEDKRQVSSRNPQIMYGARGTRYTFQSLVNFNYCTGVLGSQSITSGKHYWEVDVSKKSAWILGVCAGFQSDAMYNIEQNENYQPKYGYWVIGLQEGVKYSVFQDGSSHTPFAPFIVPLSVIICPDRVGVFVDYEACTVSFFNITNHGFLIYKFSQCSFSKPVFPYLNPRKCTVPMTLCSPSS [rhesus TRIM5α, 332-344 = GARGTRYTFQSLV]	0.817 ± 0.28
MASGILLNVKEEVTCPICLELLTEPLSLHCGHSFCQACITANHKKSMLYKEGERSCPVCRISYQPENIQPNRHVANIVEKLREVKLSPEEGQKVDHCARHGEKLLLFCQEDSKVICWLCERSQEHRGHHTFLMEEVAQEYHVKLQTALEMLRQKQQEAEKLEADIREEKASWKIQIDYDKTNVSADFEQLREILDWEESNELQNLEKEEEDILKSLTKSETEMVQQTQYMRELISELEHRLQGSMMDLLQGVDGIIKRIENMTLKKPKTFHKNQRRVFRAPDLKGMLDMFRELTDARRYWVDVTLAPNNISHAVIAEDKRQVSSRNPQIMYGARGTRYTFQTFTNFNYCTGVLGSQSITSGKHYWEVDVSKKSAWILGVCAGFQSDAMYNIEQNENYQPKYGYWVIGLQEGVKYSVFQDGSSHTPFAPFIVPLSVIICPDRVGVFVDYEACTVSFFNITNHGFLIYKFSQCSFSKPVFPYLNPRKCTVPMTLCSPSS [rhesus TRIM5α, 332-344 = GARGTRYTFQTFT]	1.09 ± 0.32
MASGILLNVKEEVTCPICLELLTEPLSLHCGHSFCQACITANHKKSMLYKEGERSCPVCRISYQPENIQPNRHVANIVEKLREVKLSPEEGQKVDHCARHGEKLLLFCQEDSKVICWLCERSQEHRGHHTFLMEEVAQEYHVKLQTALEMLRQKQQEAEKLEADIREEKASWKIQIDYDKTNVSADFEQLREILDWEESNELQNLEKEEEDILKSLTKSETEMVQQTQYMRELISELEHRLQGSMMDLLQGVDGIIKRIENMTLKKPKTFHKNQRRVFRAPDLKGMLDMFRELTDARRYWVDVTLAPNNISHAVIAEDKRQVSSRNPQIMYGARGTLFPSLVNFNYCTGVLGSQSITSGKHYWEVDVSKKSAWILGVCAGFQSDAMYNIEQNENYQPKYGYWVIGLQEGVKYSVFQDGSSHTPFAPFIVPLSVIICPDRVGVFVDYEACTVSFFNITNHGFLIYKFSQCSFSKPVFPYLNPRKCTVPMTLCSPSS [rhesus TRIM5α, 332-344 = GARGTLFPSLV]	0.639 ± 0.29
MASGILLNVKEEVTCPICLELLTEPLSLHCGHSFCQACITANHKKSMLYKEGERSCPVCRISYQPENIQPNRHVANIVEKLREVKLSPEEGQKVDHCARHGEKLLLFCQEDSKVICWLCERSQEHRGHHTFLMEEVAQEYHVKLQTALEMLRQKQQEAEKLEADIREEKASWKIQIDYDKTNVSADFEQLREILDWEESNELQNLEKEEEDILKSLTKSETEMVQQTQYMRELISELEHRLQGSMMDLLQGVDGIIKRIENMTLKKPKTFHKNQRRVFRAPDLKGMLDMFRELTDARRYWVDVTLAPNNISHAVIAEDKRQVSSRNPQIMYGARGTLYTFPTLVNFNYCTGVLGSQSITSGKHYWEVDVSKKSAWILGVCAGFQSDAMYNIEQNENYQPKYGYWVIGLQEGVKYSVFQDGSSHTPFAPFIVPLSVIICPDRVGVFVDYEACTVSFFNITNHGFLIYKFSQCSFSKPVFPYLNPRKCTVPMTLCSPSS [rhesus TRIM5α, 332-344 = GARGTLYTFPTLV]	3.79 ± 2.5
MASGILLNVKEEVTCPICLELLTEPLSLHCGHSFCQACITANHKKSMLYKEGERSCPVCRISYQPENIQPNRHVANIVEKLREVKLSPEEGQKVDHCARHGEKLLLFCQEDSKVICWLCERSQEHRGHHTFLMEEVAQEYHVKLQTALEMLRQKQQEAEKLEADIREEKASWKIQIDYDKTNVSADFEQLREILDWEESNELQNLEKEEEDILKSLTKSETEMVQQTQYMRELISELEHRLQGSMMDLLQGVDGIIKRIENMTLKKPKTFHKNQRRVFRAPDLKGMLDMFRELTDARRYWVDVTLAPNNISHAVIAEDKRQVSSRNPQIMYGARGTRFTFQSLVNFNYCTGVLGSQSITSGKHYWEVDVSKKSAWILGVCAGFQSDAMYNIEQNENYQPKYGYWVIGLQEGVKYSVFQDGSSHTPFAPFIVPLSVIICPDRVGVFVDYEACTVSFFNITNHGFLIYKFSQCSFSKPVFPYLNPRKCTVPMTLCSPSS [rhesus TRIM5α, 332-344 = GARGTRFTFQSLV]	0.932 ± 0.2
MASGILLNVKEEVTCPICLELLTEPLSLHCGHSFCQACITANHKKSMLYKEGERSCPVCRISYQPENIQPNRHVANIVEKLREVKLSPEEGQKVDHCARHGEKLLLFCQEDSKVICWLCERSQEHRGHHTFLMEEVAQEYHVKLQTALEMLRQKQQEAEKLEADIREEKASWKIQIDYDKTNVSADFEQLREILDWEESNELQNLEKEEEDILKSLTKSETEMVQQTQYMRELISELEHRLQGSMMDLLQGVDGIIKRIENMTLKKPKTFHKNQRRVFRAPDLKGMLDMFRELTDARRYWVDVTLAPNNISHAVIAEDKRQVSSRNPQIMYGAPGTLFTFQSLVNFNYCTGVLGSQSITSGKHYWEVDVSKKSAWILGVCAGFQSDAMYNIEQNENYQPKYGYWVIGLQEGVKYSVFQDGSSHTPFAPFIVPLSVIICPDRVGVFVDYEACTVSFFNITNHGFLIYKFSQCSFSKPVFPYLNPRKCTVPMTLCSPSS [rhesus TRIM5α, 332-344 = GAPGTLFTFQSLV]	0.801 ± 0.2
MASGILLNVKEEVTCPICLELLTEPLSLHCGHSFCQACITANHKKSMLYKEGERSCPVCRISYQPENIQPNRHVANIVEKLREVKLSPEEGQKVDHCARHGEKLLLFCQEDSKVICWLCERSQEHRGHHTFLMEEVAQEYHVKLQTALEMLRQKQQEAEKLEADIREEKASWKIQIDYDKTNVSADFEQLREILDWEESNELQNLEKEEEDILKSLTKSETEMVQQTQYMRELISELEHRLQGSMMDLLQGVDGIIKRIENMTLKKPKTFHKNQRRVFRAPDLKGMLDMFRELTDARRYWVDVTLAPNNISHAVIAEDKRQVSSRNPQIMYGARGTLFQSLTNFNYCTGVLGSQSITSGKHYWEVDVSKKSAWILGVCAGFQSDAMYNIEQNENYQPKYGYWVIGLQEGVKYSVFQDGSSHTPFAPFIVPLSVIICPDRVGVFVDYEACTVSFFNITNHGFLIYKFSQCSFSKPVFPYLNPRKCTVPMTLCSPSS [rhesus TRIM5α, 332-344 = GARGTLFQSLT]	0.626 ± 0.88
MASGILLNVKEEVTCPICLELLTEPLSLHCGHSFCQACITANHKKSMLYKEGERSCPVCRISYQPENIQPNRHVANIVEKLREVKLSPEEGQKVDHCARHGEKLLLFCQEDSKVICWLCERSQEHRGHHTFLMEEVAQEYHVKLQTALEMLRQKQQEAEKLEADIREEKASWKIQIDYDKTNVSADFEQLREILDWEESNELQNLEKEEEDILKSLTKSETEMVQQTQYMRELISELEHRLQGSMMDLLQGVDGIIKRIENMTLKKPKTFHKNQRRVFRAPDLKGMLDMFRELTDARRYWVDVTLAPNNISHAVIAEDKRQVSSRNPQIMYQARGTLYTFPTLTNFNYCTGVLGSQSITSGKHYWEVDVSKKSAWILGVCAGFQSDAMYNIEQNENYQPKYGYWVIGLQEGVKYSVFQDGSSHTPFAPFIVPLSVIICPDRVGVFVDYEACTVSFFNITNHGFLIYKFSQCSFSKPVFPYLNPRKCTVPMTLCSPSS [rhesus TRIM5α, 332-344 = QARGTLYTFPTLT]	0.781 ± 0.076
MASGILLNVKEEVTCPICLELLTEPLSLHCGHSFCQACITANHKKSMLYKEGERSCPVCRISYQPENIQPNRHVANIVEKLREVKLSPEEGQKVDHCARHGEKLLLFCQEDSKVICWLCERSQEHRGHHTFLMEEVAQEYHVKLQTALEMLRQKQQEAEKLEADIREEKASWKIQIDYDKTNVSADFEQLREILDWEESNELQNLEKEEEDILKSLTKSETEMVQQTQYMRELISELEHRLQGSMMDLLQGVDGIIKRIENMTLKKPKTFHKNQRRVFRAPDLKGMLDMFRELTDARRYWVDVTLAPNNISHAVIAEDKRQVSSRNPQIMYGAPGTRYTFPSLVNFNYCTGVLGSQSITSGKHYWEVDVSKKSAWILGVCAGFQSDAMYNIEQNENYQPKYGYWVIGLQEGVKYSVFQDGSSHTPFAPFIVPLSVIICPDRVGVFVDYEACTVSFFNITNHGFLIYKFSQCSFSKPVFPYLNPRKCTVPMTLCSPSS [rhesus TRIM5α, 332-344 = GAPGTRYTFPSLV]	1.28 ± 0.2
MASGILLNVKEEVTCPICLELLTEPLSLHCGHSFCQACITANHKKSMLYKEGERSCPVCRISYQPENIQPNRHVANIVEKLREVKLSPEEGQKVDHCARHGEKLLLFCQEDSKVICWLCERSQEHRGHHTFLMEEVAQEYHVKLQTALEMLRQKQQEAEKLEADIREEKASWKIQIDYDKTNVSADFEQLREILDWEESNELQNLEKEEEDILKSLTKSETEMVQQTQYMRELISELEHRLQGSMMDLLQGVDGIIKRIENMTLKKPKTFHKNQRRVFRAPDLKGMLDMFRELTDARRYWVDVTLAPNNISHAVIAEDKRQVSSRNPQIMYGAPGTLFTFQTLVNFNYCTGVLGSQSITSGKHYWEVDVSKKSAWILGVCAGFQSDAMYNIEQNENYQPKYGYWVIGLQEGVKYSVFQDGSSHTPFAPFIVPLSVIICPDRVGVFVDYEACTVSFFNITNHGFLIYKFSQCSFSKPVFPYLNPRKCTVPMTLCSPSS [rhesus TRIM5α, 332-344 = GAPGTLFTFQTLV]	0.927 ± 0.27
